# In PubChem BioAssay AID463173 (ICCB-Longwood Screening Facility, Harvard Medical School, 2010):
# The whole screen tested about 52,000 compounds, of which about 4,300 (8.3%) were called active. No stated cut-off is given here; in the data, active means survival mostly below about 52% (no sharp cut-off); inactive means mostly above about 56%. Some of the results follow.
# Test system: DeltatarO mutant
# Assay: S. aureus survival, RN4220 and DeltatarO strains – OD600, teichoic acid synthesis inhibitors, primary screen (AID 463173)
# Details: S. aureus RN4220 wild type/DeltatarO growth, OD600, 18 h, active compounds read low, screened at 18.75 µg/mL (by protocol)
row,SMILES,survival
1,COc1ccc(-c2nnc(SCC(=O)Nc3ccc(F)cc3)s2)cc1,inactive: 83%
2,O=c1c2sc3ccccc3c2n(Cc2ccccc2F)c(=O)n1CCc1ccccc1,inactive: 69%
3,CN(C)c1ccc(C(CNS(=O)(=O)c2ccc(Br)cc2)N2CCOCC2)cc1 (stereo not drawn),inactive: 74%
4,CCOC(=O)c1ccccc1NC(=O)Cn1c(=O)n(Cc2ccccc2)c(=O)c2c(C)c(C)sc21,active: 84%
5,CCN(c1ccc(Cl)cc1)S(=O)(=O)c1nnc(NC(=O)C(C)C)s1,inactive: 84%
6,COc1ccc(Nc2nc(NCCO)c3ccccc3n2)c(OC)c1,inactive: 88%
7,CCC(=O)Oc1ccc(-c2nc3ccccc3c(=O)o2)cc1,inactive: 52%
8,Cc1ccc(-n2ncc(C(=O)N3CCN(Cc4ccccc4)CC3)c2C2CCN(C(=O)OC(C)(C)C)CC2)c(C)c1,inactive: 55%
9,CC(C)(C)OC(=O)N1CCC(c2c(C(=O)NCc3ccco3)cnn2-c2ccc(F)cc2)CC1,inactive: 88%
10,CCN(c1ccccc1)S(=O)(=O)c1ccc(Cl)cc1,inactive: 92%
11,O=[N+]1C2=C(CCCC2)N([O-])C12CCCC2,inactive: 72%
12,Cc1ccc(Cn2ccc(NC(=O)c3cc(-c4ccc(Cl)c(Cl)c4)on3)n2)cc1,active: 45%
13,COCCc1nn2c(=O)cc(COC(=O)c3ccc(C(C)(C)C)cc3)nc2s1,inactive: 122%
14,Cc1ccc(S(=O)(=O)c2nc(-c3ccc(Cl)cc3)oc2N2CCCCCC2)cc1,active: 36%
15,CCCn1c(SCC(=O)Nc2ccccc2C(F)(F)F)nnc1-c1ccoc1C,inactive: 77%
16,COc1ccc(CNc2ncnc3c2c(-c2ccccc2)cn3-c2ccccc2)cc1,inactive: 82%
17,CCN(CC)S(=O)(=O)c1ccc(C(=O)N=c2sc3cccc(OC)c3n2C)cc1,inactive: 97%
18,CCc1c(SCC(=O)O)nc2ccccc2c1C,inactive: 102%
19,CN1CC(=O)N(CC(=O)Nc2ccc(Cl)c(C(F)(F)F)c2)c2ccccc2C1=O,inactive: 85%
20,Cc1c(-c2cccc(NC(=O)C(C)(C)C)c2)nc2ncccn12,inactive: 79%

row,SMILES,survival
1,Cc1ccc(-c2nc(SCc3ccc(Br)cc3)n3[nH]c(=O)cc3n2)cc1,active: 37%
2,CCc1ccc(-c2ccc(C(=O)Oc3ccc(Br)cc3)cc2)nc1,inactive: 78%
3,O=C1C=CC(=O)N1c1ccc(N2CCCCC2)cc1,inactive: 89%
4,Cc1c(C)n(C)c2ccc(C(=O)NCCCN3CCCCC3)cc12,inactive: 69%
5,O=C(CSc1ncn(-c2ccccc2)n1)NC1CCCCC1,inactive: 61%
6,Cc1cccc(N2C(=O)CCSC23C(=O)N(Cc2ccc(F)cc2)c2ccccc23)c1 (stereo not drawn),inactive: 99%
7,Cc1ccc(-c2c(C(=O)NCCc3ccc(Cl)cc3)oc(=O)c3ccccc23)cc1,inactive: 51%
8,Cc1ccc(N2CNC(=O)c3c(C)cc(C)nc32)cc1,inactive: 74%
9,O=C(CC1(O)C(=O)N(CCc2ccccc2)c2ccc(Br)cc21)c1ccccc1O (stereo not drawn),active: 40%
10,CCOc1ccc(-c2cc(C(=O)NCc3ccccc3)c3c(-c4ccc(CC)cc4)[nH]nc3n2)cc1,active: 47%
11,O=C(COc1ccc(F)cc1)Nc1ccc2nc(SCc3ccccc3)sc2c1,inactive: 85%
12,CCc1cccc(NC(=O)CSc2ncc3c(n2)-c2ccccc2N(Cc2ccccc2C)S3(=O)=O)c1,active: 8%
13,Cc1ccccc1Nc1c2c(nc3nncn13)CCC2,inactive: 68%
14,O=C(O)/C=C\C(=O)Nc1ccc2cn[nH]c2c1,inactive: 71%
15,COc1ccc(NC(=O)Cc2csc(C)n2)cc1,inactive: 47%
16,COc1ccccc1CNC(=O)c1cccc(Nc2nc3ccccc3n3nnnc23)c1,inactive: 51%
17,N#Cc1c(N)oc(-c2ccc3c(c2)OCO3)c1-c1ccc2c(c1)OCO2,inactive: 89%
18,Cc1ccc2nc(N3CCN(c4cccc(C)c4C)CC3)c3nnnn3c2c1,inactive: 81%
19,COc1ccc(Cn2nnnc2C(c2ccccc2F)N(Cc2ccco2)CC2CCCO2)cc1 (stereo not drawn),inactive: 68%
20,CCC1CN(C(=O)N2CCC(C(=O)NCc3cccs3)CC2)c2cc(C)ccc2O1 (stereo not drawn),inactive: 86%

row,SMILES,survival
1,CCOC(=O)C1CCN(S(=O)(=O)c2cc(-c3cc(C)no3)ccc2C)CC1,inactive: 94%
2,Cc1cccc(-c2nc3scc(CCNC(=O)c4ccccc4Cl)n3n2)c1,inactive: 73%
3,CCCCNS(=O)(=O)c1ccc2c(c1)C(=C(C#N)C#N)c1cc(S(=O)(=O)NCCCC)ccc1-2,inactive: 89%
4,CCCCCn1c(=O)[nH]c2cc(C(=O)Nc3ccc(F)cc3)ccc2c1=O,inactive: 95%
5,CC(C)c1nn2c(=O)cc(COC(=O)c3ccc(NC(=O)CCc4ccccc4)cc3)nc2s1,inactive: 94%
6,Cc1cccc(NC(=O)CSc2nnc(CNC(=O)c3c(F)cccc3Cl)o2)c1C,inactive: 96%
7,CC1CCN(CCNC(=O)c2ccc(Cn3c(SCc4ccccc4)nc4cccnc43)cc2)CC1,inactive: 107%
8,CC(=O)c1ccc(NC(=O)NCCc2c[nH]c3ccccc23)cc1,inactive: 101%
9,COc1ccc(N2CCN(C(=O)CN(c3cccc(C(F)(F)F)c3)S(C)(=O)=O)CC2)cc1,inactive: 102%
10,CCCC12CN3CC(C)(CN(C1)C3c1cn(C)c3ccccc13)C2=O (stereo not drawn),inactive: 96%
11,CCc1cccc(NCc2ccccc2-c2nnc(-c3ccccc3Cl)o2)c1,inactive: 87%
12,CCOc1ccc(NC(=O)c2ccc(F)c(S(=O)(=O)NCc3ccc4c(c3)OCO4)c2)cc1,inactive: 81%
13,CC(=O)Nc1ccc(S(=O)(=O)Nc2ccc3c(c2)OC(C)(C)O3)cc1,inactive: 101%
14,COc1ccc(-n2c(SCc3ccccc3F)nc3c([nH]c4ccccc43)c2=O)cc1,inactive: 92%
15,O=C(NC1CC(=O)N(c2ccc(Cl)cc2)C1)c1ccc(S(=O)(=O)N2CCCC2)cc1 (stereo not drawn),inactive: 79%
16,Cc1ccccc1CSc1nnc2[nH]c(=O)cc(C)n12,inactive: 84%
17,O=C(Cn1cc(S(=O)(=O)Cc2ccc(F)cc2)c2ccccc21)NCc1ccccc1Cl,inactive: 79%
18,O=C(NCCCc1nc2ccccc2n1Cc1ccc(Cl)cc1)c1ccco1,inactive: 105%
